In publication PMC4336329 (PLoS ONE, 2015):
The whole screen tested about 310,000 compounds, of which about 2,200 (0.71%) showed an effect of 50% or more. Effects have a minus sign here. This is one part of the list.

What follows are compounds tested against human ether-à-go-go-related gene (hERG) potassium channel (human, UniProt Q12809) (assay: primary screen, population patch clamp on CHO cells stably expressing hERG).
Chain of human ether-à-go-go-related gene (hERG) potassium channel (Q12809 whole entry, looked up): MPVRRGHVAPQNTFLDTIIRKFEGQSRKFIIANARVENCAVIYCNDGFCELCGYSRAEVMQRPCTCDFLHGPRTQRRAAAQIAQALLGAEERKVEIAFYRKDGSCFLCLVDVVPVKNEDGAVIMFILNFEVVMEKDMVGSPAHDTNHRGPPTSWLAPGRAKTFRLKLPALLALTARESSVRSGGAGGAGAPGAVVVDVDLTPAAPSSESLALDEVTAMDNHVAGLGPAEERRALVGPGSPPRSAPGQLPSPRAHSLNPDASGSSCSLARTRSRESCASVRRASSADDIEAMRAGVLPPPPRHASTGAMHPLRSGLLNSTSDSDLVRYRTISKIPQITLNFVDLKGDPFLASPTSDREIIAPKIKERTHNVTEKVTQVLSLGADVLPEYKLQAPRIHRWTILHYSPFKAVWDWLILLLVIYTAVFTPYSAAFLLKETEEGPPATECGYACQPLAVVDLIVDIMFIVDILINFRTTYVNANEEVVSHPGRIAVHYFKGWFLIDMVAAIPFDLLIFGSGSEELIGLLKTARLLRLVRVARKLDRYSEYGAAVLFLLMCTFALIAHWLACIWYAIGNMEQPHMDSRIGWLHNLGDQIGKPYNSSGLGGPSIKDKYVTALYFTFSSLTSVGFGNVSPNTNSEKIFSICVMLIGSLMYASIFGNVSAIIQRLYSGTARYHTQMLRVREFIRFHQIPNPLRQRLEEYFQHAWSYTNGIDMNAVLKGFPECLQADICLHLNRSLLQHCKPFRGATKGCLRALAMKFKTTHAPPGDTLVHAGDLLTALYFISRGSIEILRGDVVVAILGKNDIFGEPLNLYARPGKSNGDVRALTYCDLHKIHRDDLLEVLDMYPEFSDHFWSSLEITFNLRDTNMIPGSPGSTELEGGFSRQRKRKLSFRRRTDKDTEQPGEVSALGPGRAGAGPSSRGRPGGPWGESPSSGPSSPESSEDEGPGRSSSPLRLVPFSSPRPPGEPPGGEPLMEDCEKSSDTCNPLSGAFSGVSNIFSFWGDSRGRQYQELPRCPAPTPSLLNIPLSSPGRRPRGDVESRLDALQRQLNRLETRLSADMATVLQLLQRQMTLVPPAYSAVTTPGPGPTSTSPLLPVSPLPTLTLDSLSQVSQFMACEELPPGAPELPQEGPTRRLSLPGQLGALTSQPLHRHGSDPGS

SMILES | hERG current change (%, negative = inhibition) at 1uM [%]
NC(=O)COc1ccc(C(=O)/C=C2/C(=O)Nc3ccccc32)cc1 | 8.28
N#CC(c1nc2ccccc2nc1N1CCOCC1)S(=O)(=O)c1ccccc1 (stereo not drawn) | 13.6
C=C(C)C1CCC(C)=C1COC(=O)Nc1ccccc1 (stereo not drawn) | 11.5
COc1ccc(/C=C2\SC(N3CCCCC3)=NC2=O)cc1 | 19.1
CC(=O)c1ccc(NC(=O)C(C)Oc2ccc(N(C)S(=O)(=O)c3ccc(C)cc3)cc2)cc1 (stereo not drawn) | 7.12
CCOC(=O)CC(C#N)c1cn(C)c2ccccc12 (stereo not drawn) | -0.913
CCC(=O)Nc1nc(CC(=O)Nc2ccccc2OC)cs1 | -1.9
O=C(CCN1C(=O)/C(=C/c2ccccc2)SC1=S)Nc1cccnc1 | 10.6
Cc1ccc(-n2nc3c(c2NC(=O)c2ccc4c(c2)OCO4)CSC3)c(C)c1 | 1.85
CCOc1ccc(NC(=O)CN(C)C(=O)C2CC(=O)N(Cc3ccco3)C2)cc1OCC (stereo not drawn) | 6.7
CN1CCN(Cn2cc(/C=C/C(=O)c3ccccc3)c3ccccc32)CC1 | 10.1
C/C(Cc1ccccc1)=N\NC(=O)CNC(=O)c1ccc(Br)cc1 | 1.18
CCN1CCCC1Cn1cnc2c([nH]c3cccc(Cl)c32)c1=O (stereo not drawn) | -38.7
Cc1cc(C)n2nc(N)c(N=Nc3ccccc3)c2n1 | 9.32
CC(C)CN(CCNC(=O)CN1N=C(c2ccc(Cl)cc2)CCC1=O)CC(C)C | 12.3
Cc1ccc(N(CC(=O)NC(C)(C)C)C(=O)CNC(=O)c2cccs2)cc1 | 7.4
NC(=O)Cn1c(S(=O)(=O)Cc2ccccc2)nc2ccccc21 | 8.07
CCCCNC(=O)c1onc(CSc2cccc(OC)c2)c1C(=O)O | 9.58
Cc1cc(C)c2c(CC(=O)Nc3nccs3)coc2c1 | 11.1
COc1cc(C(=O)Nc2cccc(S(=O)(=O)NCc3ccco3)c2)cc(OC)c1OC | -2.69
CC(C)CC(=O)NC(NC(=S)Nc1ccccc1)C(Cl)(Cl)Cl (stereo not drawn) | 6.59
O=C(CN1C(=O)NC(c2ccccc2)(c2ccccc2)C1=O)NC1CCCC1 | 11.2
O=C(C1CC(=O)N(c2ccc(Cl)cc2)C1)N1CCN(Cc2ccc3c(c2)OCO3)CC1 (stereo not drawn) | -33.4
CCc1ccc(N2CC(C(=O)Nc3ccccc3F)CC2=O)cc1 (stereo not drawn) | -9.77
